{"source": "PubChem BioAssay AID686979", "about": "(National Center for Advancing Translational Sciences (NCATS), 2013)", "note": "Several values for one entry are separate records, joined by “and”; a condition that tells them apart may be missing. Identical values can stand only once. Out of some 420,000 compounds screened, about 50,000 (12%) were called active. The shares of active, inactive and inconclusive entries below differ from those in the screen. Calls follow the shape of the dose curve; as a rule, active = well fitted inhibition curve with a large enough effect; inconclusive = small, poorly fitted or top-dose-only effect; inactive = flat fitted curve, though single readings scatter. A potency beside an inconclusive call is a rough fit, not a confirmed value. % is scaled to controls: 0 for no effect and ±100 for the full control effect; potency is read from the fitted curve at half-maximal effect; tags tell the direction and shape of the fitted curve."}
{"assay": "qHTS for Inhibitors of human tyrosyl-DNA phosphodiesterase 1 (TDP1): qHTS in cells in presence of CPT; also: nearly all actives have a fitted effect of over 55% in size", "details": "chicken DT40 Tdp1-/-;hTDP1 cells + 20 nM CPT, ATP luminescence, 48 h; activity change, negative = growth inhibition: at 46.2 µM (top of the series) unless noted", "summary_of_the_method": "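Chicken DT40 Tdp1-/- cells stably complemented with human TDP1 were seeded at 400 cells/well in medium containing 20 nM camptothecin, exposed to pin-transferred compounds, and grown at 37 °C for at least 48 hr. Viability was read as ATP luminescence.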"}
{"smiles": "COc1ccc(OC)c(C(=O)CSc2nnc(-c3cccnc3)n2C)c1", "activity change, negative = growth inhibition": "inactive: -3.52%"}
{"smiles": "c1cnn(-c2nc(N3CCOCC3)nc(N3CCOCC3)n2)c1", "Potency": "active: 6.51 µM"}
{"smiles": "CC(C)=CCc1c2c(c3occ(-c4ccc(O)c(O)c4)c(=O)c3c1O)C=CC(C)(C)O2", "Potency": "active: 731 nM and active: 1.3 µM"}
{"smiles": "COc1cccc(N(C(=O)CS(=O)CC(=O)Nc2ccc(F)cc2)C(C(=O)NC2CCCCC2)c2cccs2)c1", "note": "(centres undefined)", "Potency": "inconclusive: 29.1 µM [inhibitor, single point]"}
{"smiles": "COc1ccc(N(C(=O)COc2ccccc2OC)S(=O)(=O)c2ccc(Cl)cc2)cc1", "Potency": "active: 16.4 µM"}
{"smiles": "O=C(Nc1cccnc1)c1cc(-c2cccc(Br)c2)nc2ccccc12", "Potency": "inconclusive: 25.9 µM [inhibitor, single point]"}
{"smiles": "CN(c1ccccc1)S(=O)(=O)c1ccc(NC(=S)NC(=O)C2CC2)cc1", "Potency": "inconclusive: 20.6 µM [inhibitor, single point]"}
{"smiles": "Cc1ccc(Cn2c(SCc3cccnc3)nc3c2c(=O)n(C)c(=O)n3C)cc1", "Potency": "inconclusive: 14.6 µM [inhibitor, partial curve, poor fit]"}
{"smiles": "COc1cc(NS(=O)(=O)c2ccc(N)cc2)ncn1", "Potency": "inconclusive: 29.1 µM [inhibitor, single point]"}
{"smiles": "O=C(c1ccccc1)n1nc(-c2ccco2)nc1NCc1ccccc1Cl", "activity change, negative = growth inhibition": "inactive: 1.11%"}
{"smiles": "O=C(NCc1ccccc1)C(c1cccs1)N(Cc1cccs1)C(=O)c1cnccn1", "note": "(centres undefined)", "Potency": "inconclusive: 23.1 µM [inhibitor, single point]"}
{"smiles": "Cc1ccc(C(=O)N/N=C/C=C/c2ccccc2)cc1", "activity change, negative = growth inhibition": "inactive: -4.7%"}
{"smiles": "CCSCCCn1[nH]c2ccccc2c1=O", "Potency": "inconclusive: 20.6 µM [inhibitor, partial curve, poor fit]"}
{"smiles": "COc1cccc(-c2ccc3nccn3c2)c1", "activity change, negative = growth inhibition": "inconclusive: -33.8% [inhibitor]"}
{"smiles": "CNCCCOc1ccc2c(c1)CCC2", "Potency": "inconclusive: 25.9 µM [inhibitor, single point]"}
{"smiles": "COc1ccc(NC(=O)CSc2c(C)n[nH]c2C)cc1", "Potency": "inconclusive: 20.6 µM [inhibitor, single point]"}
{"smiles": "COc1cccc(N/C(SCc2cccc([N+](=O)[O-])c2)=C(/C#N)C(=O)NCc2cccs2)c1", "Potency": "inconclusive: 18.4 µM [inhibitor, single point]"}
{"smiles": "Cc1ccccc1OCC(=O)N(CC(C)C)c1c(N)n(CC(C)C)c(=O)[nH]c1=O", "activity change, negative = growth inhibition": "inactive: 5.13%"}
{"smiles": "CCc1ccccc1NC(=O)Nc1cc(C(=O)NCc2ccc(OC)cc2)ccc1N1CCCC1", "Potency": "active: 11.6 µM"}
{"smiles": "COc1ccc(-c2[nH]ncc2-c2cnn(-c3ccccc3)c2)c(O)c1", "activity change, negative = growth inhibition": "inactive: -10.4%"}
{"smiles": "COc1ccc(-c2csc(C(O)(c3ccccc3)C(F)(F)F)n2)cc1", "note": "(centres undefined)", "Potency": "inconclusive: 20.6 µM [inhibitor, single point]"}
{"smiles": "CSc1nc(N2CCOCC2)c2c(c1C#N)CC(C)(C)OC2", "Potency": "inconclusive: 16.4 µM [inhibitor, single point]"}
{"smiles": "CC(C)(C)Cc1nnc(NC(=O)c2ccco2)s1", "activity change, negative = growth inhibition": "inactive: -9.99%"}
{"smiles": "COc1ccccc1N1CCN(C2CCCN(S(=O)(=O)c3ccccc3)C2)CC1", "note": "(centres undefined)", "activity change, negative = growth inhibition": "inactive: -24.9%"}
{"smiles": "CC(C(=O)O)(C1CCCCC1)C1(O)CCCCC1", "note": "(centres undefined)", "Potency": "inconclusive: 29.1 µM [inhibitor, single point]"}
{"smiles": "CCOc1ccc(CCNC(=O)C2CCC(CNS(=O)(=O)c3ccc(Cl)cc3)CC2)cc1OCC", "note": "(centres undefined)", "Potency": "inconclusive: 20.6 µM [inhibitor, single point]"}
{"smiles": "CC1CCN(Cc2c(C(=O)N/N=C/c3cccc(C(F)(F)F)c3)nnn2-c2nonc2N)CC1", "Potency": "active: 14.6 µM"}
{"smiles": "O/N=C(/CI)c1ccc2ccccc2c1", "Potency": "inconclusive: 35.5 µM [inhibitor, partial curve, poor fit]"}
{"smiles": "c1coc(CNc2nc[n+]3c4c2ncn4CC3)c1", "activity change, negative = growth inhibition": "inactive: -21%"}
{"smiles": "Cc1ccc2nc(NC(=O)CN3C(=O)NC4(CCCC4)C3=O)sc2c1", "Potency": "inconclusive: 29.1 µM [inhibitor, single point]"}
{"smiles": "Cc1c(C(=O)O)sc2nc(C)n(C)c(=O)c12", "activity change, negative = growth inhibition": "inconclusive: -30.7% [inhibitor]"}
{"smiles": "CCOCCCNC(=O)c1cc2c(=O)[nH]c3ccccc3c2n1C", "activity change, negative = growth inhibition": "inactive: -22.1%"}
{"smiles": "CC1=CC(C)(C)N2C(=O)C3(N=C(N)NC(Nc4ccccc4)=N3)c3cc(C)cc1c32", "note": "(centres undefined)", "Potency": "inconclusive: 25.9 µM [inhibitor, single point]"}
{"smiles": "CC1(C)O[C@@H]2C[C@H]3[C@@H]4C[C@H](F)C5=CC(=O)C=C[C@]5(C)[C@@]4(F)[C@@H](O)C[C@]3(C)[C@]2(C(=O)CO)O1", "Potency": "inconclusive: 0.0164 µM [inhibitor, full curve, poor fit]", "activity change, negative = growth inhibition": "inconclusive: -30% [inhibitor]"}
{"smiles": "O=C(CCc1ccc(Oc2cc([N+](=O)[O-])cc([N+](=O)[O-])c2)cc1)Nc1cccc(Cl)c1", "Potency": "inconclusive: 23.1 µM [inhibitor, single point]"}
{"smiles": "COc1ccc(Cl)cc1NC(=O)CSc1nc2ccsc2c(=O)n1CC1CCC(C(=O)O)CC1", "note": "(centres undefined)", "Potency": "inconclusive: 16.4 µM [inhibitor, single point]"}
{"smiles": "CC(C)C(=O)NCC1CCC2(CCN(Cc3ccc(-c4ccccc4Cl)o3)CC2)O1", "note": "(centres undefined)", "Potency": "inconclusive: 18.4 µM [inhibitor, single point]"}
{"smiles": "CCOc1ccc(CNC(=O)C2CCN(c3nn4c(=O)cc(C)nc4s3)CC2)cc1", "Potency": "inconclusive: 13 µM [inhibitor, partial curve] and inconclusive: 20.6 µM [inhibitor, single point]"}
{"smiles": "CC1=C2CCCC[C@@]23C2C(=O)N(C)C(=O)[C@@H]2ON3OC1", "note": "(some centres undefined)", "activity change, negative = growth inhibition": "inactive: 18.6%"}
{"smiles": "FC(F)(F)c1cnc(Sc2nc3nccc(-c4ccc(Cl)cc4)n3n2)c(Cl)c1", "Potency": "inconclusive: 23.1 µM [inhibitor, single point]"}
{"smiles": "O=C(CCCn1ccc2cc(S(=O)(=O)N3CCCC3)ccc21)NCc1ccc(Cl)cc1", "Potency": "active: 4.61 µM"}
{"smiles": "COCOc1cc(O)c(C(=O)/C=C/c2ccccc2)c(OCOC)c1", "Potency": "active: 14.6 µM"}
{"smiles": "COc1cc(NC(=S)NC(C)(C)C)c(OC)cc1Cl", "Potency": "inconclusive: 29.1 µM [inhibitor, single point]"}
